# Data from PubChem BioAssay (NCATS).
# “And” between values parts separate entries of the source, which are not always exact repeats. Equal values may be shown once. Inconclusive results, whose numbers are uncertain, are shown with a selection of clear calls. For some assays here: Where the call is inconclusive, the potency comes from a doubtful curve fit. The source made the active and inactive calls. Unless noted, calls follow the shape of the dose curve; as a rule, active = well fitted curve in the direction sought with a large enough effect; inconclusive = small, poorly fitted or top-dose-only effect, or another doubt; inactive = no such curve, though single readings can be large; an effect the other way counts as inactive or inconclusive.
# Tests used:
# [1] = AP1 Signaling Pathway (AID 357; active = well fitted curve in either direction with a large enough effect, not every such curve was filed as active; inconclusive = small, poorly fitted or top-dose-only effect, or another doubt;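 also: ME-180 reporter cells stimulated with EGF at its EC50 level; top concentration of the series differs between compounds; % is scaled to controls: 0 for no effect and ±100 for the full control effect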); details: ME-180 AP-1-bla reporter, EGF-induced, beta-lactamase ratio, 5 h; at 17.2 µM (top of the series) unless noted
# In short: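 First, ME-180 AP-1-bla cells were cultured overnight at 37 °C in low-serum Opti-MEM. Next, titrated compounds with EC50 EGF were incubated 5 hours. Finally, CCF4 was added for 2.5 hours and the 460/530 nm ratio recorded.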
# [2] = molecular target: Cytochrome P450 3A4 (Homo sapiens) (UniProt P08684); assay: qHTS Assay for Inhibitors and Substrates of Cytochrome P450 3A4 (AID 884); also: potency is read from the fitted curve at half-maximal effect; nearly all actives have a fitted effect of over 50% in size
# Sequence of UniProt P08684 (P08684 whole entry, looked up): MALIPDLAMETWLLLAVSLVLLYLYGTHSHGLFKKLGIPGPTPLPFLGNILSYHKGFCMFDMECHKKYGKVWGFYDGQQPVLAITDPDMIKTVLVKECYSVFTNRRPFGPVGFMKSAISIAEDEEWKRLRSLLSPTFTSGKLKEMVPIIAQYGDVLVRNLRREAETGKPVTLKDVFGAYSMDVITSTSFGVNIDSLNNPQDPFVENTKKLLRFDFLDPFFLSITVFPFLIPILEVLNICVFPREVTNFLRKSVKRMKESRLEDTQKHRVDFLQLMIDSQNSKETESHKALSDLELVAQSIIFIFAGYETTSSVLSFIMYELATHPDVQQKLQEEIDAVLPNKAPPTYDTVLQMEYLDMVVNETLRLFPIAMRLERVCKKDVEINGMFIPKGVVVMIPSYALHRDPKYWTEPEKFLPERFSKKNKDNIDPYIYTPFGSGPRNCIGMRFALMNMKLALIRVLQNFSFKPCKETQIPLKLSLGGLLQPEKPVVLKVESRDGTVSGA
# In short: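 20 nM human CYP3A4 with 25 uM Luciferin-PPXE (at KM) in 200 mM KPO4, preincubated 10 min with compound; NADPH regeneration started a 60 min RT reaction. Luciferin detected by luminescence, normalized to 57 uM ketoconazole as full inhibition.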
# [3] = qHTS Assay for Identification of Small Molecule Antagonists for Thrombopoietin (TPO) Signaling Pathway (AID 918); details: TPO-dependent cell signaling reporter, antagonist mode; activity change, negative = inhibition: at 38.5 µM (top of the series); also: nearly all actives have a fitted effect of over 60% in size
# In short: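 First, Ba/F3 reporter cells expressing human TPO receptor were held overnight without IL-3. Next, compound and 26 pM TPO were added. After 24 hrs incubation at 37 C, luciferase luminescence under the Glycoprotein IIb promoter was recorded.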
# [4] = molecular target: Pyruvate kinase (Leishmania mexicana) (UniProt Q27686); assay: qHTS Validation Assay for Activators of Leishmania Mexicana Pyruvate Kinase (AID 959)
# Sequence of UniProt Q27686 (Q27686 2-499 E452W): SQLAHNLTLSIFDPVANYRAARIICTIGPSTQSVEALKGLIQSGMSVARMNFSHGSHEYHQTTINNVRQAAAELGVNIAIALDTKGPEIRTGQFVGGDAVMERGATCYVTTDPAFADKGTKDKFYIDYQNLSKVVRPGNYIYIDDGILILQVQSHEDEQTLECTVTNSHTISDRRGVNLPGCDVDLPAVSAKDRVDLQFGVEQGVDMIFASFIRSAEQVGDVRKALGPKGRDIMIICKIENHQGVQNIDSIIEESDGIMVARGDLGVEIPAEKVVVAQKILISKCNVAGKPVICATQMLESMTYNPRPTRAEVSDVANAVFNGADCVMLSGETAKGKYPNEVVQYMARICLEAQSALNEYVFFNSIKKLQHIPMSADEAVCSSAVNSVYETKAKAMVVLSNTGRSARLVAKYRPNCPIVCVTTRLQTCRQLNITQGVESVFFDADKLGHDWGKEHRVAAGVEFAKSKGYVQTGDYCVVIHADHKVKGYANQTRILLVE
# In short: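 An endpoint luciferase assay: 0.2 nM LmPYK E451W turns over 0.5 mM PEP with 0.1 mM ADP for 1 h at room temperature, pH 7.2, before PKLight addition. Values are normalized to DMSO-only wells.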
# [5] = qHTS for differential inhibitors of proliferation of Plasmodium falciparum line Dd2 (AID 1882); details: Potency: Plasmodium falciparum Dd2 proliferation inhibition;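 also: compound exposure of 72 h on infected erythrocytes; plate controls were DMSO vehicle for no effect and 0.29 µM artemisinin for full effect; nearly all actives have a fitted effect of over 65% in size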
# In short: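 SYBR Green I DNA fluorescence read-out, ex 485/em 535 nm. Signals were normalized to 0.29 uM artemisinin and DMSO wells, then corrected using vehicle-only plates flanking each stack. Parasite growth ran 72 h in erythrocytes before lysis.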
# [6] = Primary qHTS for small molecule stabilizers of the endoplasmic reticulum resident proteome: Secreted ER Calcium Modulated Protein (SERCaMP) assay (AID 1508630); details: SH-SY5Y GLuc-SERCaMP (Gaussia luciferase released on ER calcium loss) secretion, thapsigargin, luminescence; activity change, negative = inhibition: at 38.4 µM (top of the series); also: potency is read from the fitted curve at half-maximal effect; as to activity change, negative = inhibition: % is scaled to controls: 0 for no effect and ±100 for the full control effect
# In short: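 GLuc-SERCaMP-expressing SH-SY5Y cells, pretreated 16 h with compound, are challenged with thapsigargin to empty ER calcium stores; after 4 h, coelenterazine is added directly to the medium and luminescence is imaged.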
# [7] = NFAT Signaling Pathway (AID 444; active = well fitted curve in either direction with a large enough effect, not every such curve was filed as active; inconclusive = small, poorly fitted or top-dose-only effect, or another doubt;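 also: carbachol stimulus at about its EC50 of 1 µM final; % is scaled to controls: 0 for no effect and ±100 for the full control effect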); details: Jurkat NFAT-bla M1, carbachol, beta-lactamase ratio, 5 h
# In short: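 Read-out: CCF4 FRET ratio (460 nm/530 nm) after 1 h RT dye loading, used for %activity and AC50 from titration series. Cells: Jurkat NFAT-β-lactamase/M1 line, treated with compound plus 1 uM carbachol for 5 h, 37 °C.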
# [8] = molecular target: 3',5'-cyclic-AMP phosphodiesterase 4B (Homo sapiens) (UniProt Q07343); assay: qHTS Assay for Inhibitors of PDE-IV (AID 607; active = well fitted activation curve with a large enough effect in the main read-out, with a control signal flat, not every such curve was filed as active; inconclusive = small, poorly fitted or top-dose-only effect, or effect the other way, or a change in a side signal; also: potency is read from the fitted curve at half-maximal effect); details: HEK293 ACTOne CNG channel cells, membrane potential fluorescence; activation (PDE inhibition): at 22.9 µM (top of the series)
# Sequence of UniProt Q07343 (Q07343 whole entry, looked up): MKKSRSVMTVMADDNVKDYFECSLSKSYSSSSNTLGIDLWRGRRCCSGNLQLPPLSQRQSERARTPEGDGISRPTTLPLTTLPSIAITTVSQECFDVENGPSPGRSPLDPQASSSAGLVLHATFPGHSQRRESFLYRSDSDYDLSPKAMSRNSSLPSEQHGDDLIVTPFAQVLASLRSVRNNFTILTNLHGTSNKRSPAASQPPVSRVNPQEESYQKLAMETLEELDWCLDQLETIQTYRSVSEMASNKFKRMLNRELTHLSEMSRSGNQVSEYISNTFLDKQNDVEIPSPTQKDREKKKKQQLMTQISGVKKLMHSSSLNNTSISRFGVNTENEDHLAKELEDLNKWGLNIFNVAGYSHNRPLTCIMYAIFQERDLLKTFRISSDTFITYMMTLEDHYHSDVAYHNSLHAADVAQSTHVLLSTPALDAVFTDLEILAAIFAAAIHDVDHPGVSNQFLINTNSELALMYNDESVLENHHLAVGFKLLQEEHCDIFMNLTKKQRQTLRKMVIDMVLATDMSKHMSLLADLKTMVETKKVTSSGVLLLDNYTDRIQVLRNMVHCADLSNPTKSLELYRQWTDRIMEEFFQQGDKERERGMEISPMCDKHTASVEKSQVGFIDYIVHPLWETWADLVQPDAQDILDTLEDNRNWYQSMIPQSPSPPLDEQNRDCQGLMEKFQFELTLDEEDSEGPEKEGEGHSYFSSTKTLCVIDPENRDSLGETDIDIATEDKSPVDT
# In short: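 ACTOne HEK293 cells carry a modified cAMP-gated CNG channel and express endogenous PDE4; plated 1000 cells/well, compounds up to 22.9 uM final. Membrane-potential dye fluorescence (ex 535/em 590) was read; parental cells received 10 uM forskolin + 100 uM RO 20-1724.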
# [9] = qHTS for differential inhibitors of proliferation of Plasmodium falciparum line 7G8 (AID 1815);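 also: parasite growth measured after three days of incubation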; also: potency is read from the fitted curve at half-maximal effect;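 as to activity change, negative = inhibition: plate controls were vehicle wells for no effect and reference inhibitor wells for full effect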
# [10] = molecular target: Mitogen-activated protein kinase 10 (Mus musculus) (UniProt Q61831); assay: JNK3 AlphaScreen Assay (AID 530; active = well fitted curve in either direction with a large enough effect, not every such curve was filed as active; inconclusive = small, poorly fitted or top-dose-only effect, or another doubt;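 also: kinase came from lysate of stimulated human HepG2 cells; signal reports phosphorylation of biotinylated GST-cJun 1-79 at Ser73 with 10 µM ATP; % is scaled to controls: 0 for no effect and ±100 for the full control effect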); details: JNK3 lysate, c-Jun phosphorylation; activity change, negative = inhibition: at 57.1 µM (top of the series)
# In short: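 Room-temperature AlphaScreen kinase assay; pre-activated HepG2 lysate as JNK3 source, biotin-GST-cJun(1-79) substrate, 10 uM ATP, compound 15 min preincubation.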
# [11] = molecular target: Muscarinic acetylcholine receptor M1 (Rattus norvegicus) (UniProt P08482); assay: qHTS Assay for Antagonists of Acetylcholine Muscarinic M1 Receptor: Kinetic Measurement of Intracellular Calcium Response (AID 943); also: potency is read from the fitted curve at half-maximal effect; nearly all actives have a fitted effect of over 75% in size
# Sequence of UniProt P08482 (P08482 whole entry, looked up): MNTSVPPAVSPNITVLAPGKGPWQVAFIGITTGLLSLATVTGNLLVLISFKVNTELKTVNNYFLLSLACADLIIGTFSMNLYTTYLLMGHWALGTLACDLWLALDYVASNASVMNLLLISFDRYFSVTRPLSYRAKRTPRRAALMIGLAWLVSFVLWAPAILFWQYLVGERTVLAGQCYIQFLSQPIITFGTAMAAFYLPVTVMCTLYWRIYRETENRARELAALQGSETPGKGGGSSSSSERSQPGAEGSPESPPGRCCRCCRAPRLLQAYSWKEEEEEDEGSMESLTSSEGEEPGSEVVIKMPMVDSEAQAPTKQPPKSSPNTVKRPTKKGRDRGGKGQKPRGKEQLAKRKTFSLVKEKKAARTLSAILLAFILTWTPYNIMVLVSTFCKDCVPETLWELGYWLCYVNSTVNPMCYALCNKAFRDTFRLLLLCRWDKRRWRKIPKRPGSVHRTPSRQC
# In short: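 Intracellular calcium flux, recorded with Fluo-4 in a kinetic plate reader, served as signal; the response to carbachol at EC80 (100 nM final) was taken as maximal over minimal fluorescence after a 10 min compound pre-incubation in rat M1-CHO cells.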
# [12] = qHTS Assay for Identification of Small Molecule Agonists for NFkB Signaling Pathway (AID 928; calls by dose curve); details: NFkB beta-lactamase reporter cells, blue/green ratio
# In short: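 ME-180 NFkB-bla cells carry a beta-lactamase reporter under an NFkB response element. Compound plus 10 pM TNF alpha (final) was applied for 5 hrs at 37 C. After 2 hrs with LiveBLAzer substrate, 460/530 nm emission was read at 405 nm excitation.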
# [13] = qHTS for differential inhibitors of proliferation of Plasmodium falciparum line HB3 (AID 1886); details: Potency: Plasmodium falciparum HB3 proliferation inhibition;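 also: potency is read from the fitted curve at half-maximal effect; parasites grown with compound for 72 h before SYBR Green readout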
# [14] = Quantitative high throughput screen for delayed death inhibitors of the malarial parasite plastid, 48 hour incubation (AID 488752); also: potency is read from the fitted curve at half-maximal effect; nearly all actives have a fitted effect of over 65% in size
# In short: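 One parasite generation (48 h, 37 C, 5% CO2) of luciferase-reporter P. falciparum in erythrocytes is run with test compound; decreased luminescence indicates inhibited growth.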
# [15] = molecular target: Rap guanine nucleotide exchange factor 3 (Homo sapiens) (UniProt O95398); assay: Counterscreen qHTS for agonist of cAMP-regulated guanine nucleotide exchange factor 3 (EPAC1) (AID 1645889); details: EPAC1 Rap1B-BODIPY-GDP exchange, fluorescence; activation: at 154 µM (top of the series) unless noted; also: % of control where 0% means no effect; nearly all actives have a fitted effect of over 40% in size
# In short: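 Rap1B-BODIPY-GDP 250 nM + GDP 50 uM; cpds 7-pt, final 9.74 nM–152 uM (activator mode) or from 7.32 nM upwards (inhibitor mode); RT; FI 480/540 nm at 5 and 30 min, then ± cAMP, reread.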
# [16] = Validation screen for inhibitors of Lassa infection (AID 463096; calls by dose curve; also: potency is read from the fitted curve at half-maximal effect)
# Tags tell the direction and shape of the fitted curve.
smiles,measurement,setting,value
N#CC(C#N)=Cc1ccc([N+](=O)[O-])c(O)c1,"activity change, negative = inhibition",[1],inconclusive: 32.3% [activator] [at 38 µM]
same,Potency,[2],"inconclusive: 1.58 µM [inhibitor, full curve]"
same,"activity change, negative = inhibition",[3],inconclusive: -16% [phenotype inactive]
same,Potency,[4],active: 20 µM
same,Potency,[5],inactive
same,Potency,[6],"inactive and inconclusive: 63.1 µM [inhibitor, partial curve, poor fit]"
C[C@H]1OC[C@@H](C[N+](C)(C)C)O1,"activity change, negative = inhibition",[7]; at 17.2 µM (top of the series),active: 147% [activator]
same,"activity change, negative = inhibition",[7]; at 38 µM (top of the series),inconclusive: 45.3% [activator]
same,Potency,[8],"inconclusive: 2 µM [activator, partial curve]"
same,"activity change, negative = inhibition",[3],inconclusive: 0.44% [phenotype inactive]
same,Potency,[9],inactive
COc1ccc(-n2nc(C(F)(F)F)cc2-c2ccc(Cl)cc2)cc1,"activity change, negative = inhibition",[10],inconclusive: -20.1%
same,Potency,[8],"inconclusive: 3.98 µM [activator, full curve]"
same,Potency,[11],"inconclusive: 5.62 µM [inhibitor, partial curve, poor fit]"
same,Potency,[6],inactive
O=C(OC1CCN(CCCl)CC1)C(c1ccccc1)c1ccccc1,Potency,[12],"inconclusive: 2.51 µM [inhibitor, partial curve]"
same,Potency,[11],active: 0.112 µM
same,Potency,[13],active: 11.2 µM
same,Potency,[14],"inconclusive: 13.1 µM [inhibitor, partial curve, poor fit]"
same,activation,[15],inactive: -1.7% [at 30.8 µM]
C[C@@H]1O[C@@H](O[C@H]2C[C@@H](O)[C@]3(CO)[C@@H]4C(CC[C@]3(O)C2)[C@@]2(O)CC[C@H](C3=CC(=O)OC3)[C@@]2(C)C[C@H]4O)[C@H](O)[C@H](O)[C@H]1O (stereo partly drawn),Potency,[9],"inconclusive: 10 µM [inhibitor, single point]"
same,Potency,[13],"inconclusive: 7.94 µM [inhibitor, partial curve, poor fit]"
same,Potency,[16],active: 0.1 µM
